Assay results as given in PubChem BioAssay AID1346428 (National Center for Advancing Translational Sciences (NCATS), 2018).
About 1,200 (2.5%) of roughly 48,000 compounds were called active. About 2% were inconclusive and are not listed.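 The calls were made as follows: active = activation of at least 60% and not above a set upper limit (about 1 call in 100 departs from these limits); inconclusive = activation of 40% to 60%, or above that upper limit; inactive = activation under 40%.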 Some of the results follow.

Each compound was assayed against Probable G-protein coupled receptor 32 (Homo sapiens) (UniProt O75388) (assay: qHTS for Agonists of Human Resolvin D1 Receptor DRV1). Conditions: CHO-K1 GPR32 beta-arrestin PathHunter luminescence, 90 min; at 76.9 µM; stronger effect = higher value; zero percent set by DMSO-only wells.
Chain of UniProt O75388 (O75388 whole entry, looked up): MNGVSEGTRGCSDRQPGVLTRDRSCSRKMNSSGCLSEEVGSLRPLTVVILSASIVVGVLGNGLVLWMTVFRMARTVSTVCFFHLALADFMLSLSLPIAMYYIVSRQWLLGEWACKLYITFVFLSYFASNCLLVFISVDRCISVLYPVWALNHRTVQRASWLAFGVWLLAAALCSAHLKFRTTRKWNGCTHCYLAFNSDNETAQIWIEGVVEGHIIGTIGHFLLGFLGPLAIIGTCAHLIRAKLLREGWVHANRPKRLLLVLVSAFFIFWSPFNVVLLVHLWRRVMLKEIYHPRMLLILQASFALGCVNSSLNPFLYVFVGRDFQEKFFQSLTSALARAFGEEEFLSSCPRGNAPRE
Method in brief: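 Engineered CHO-K1 line co-expressing GPR32-ProLink and EA-beta-arrestin. Compound treatment lasted 90 min at 37 °C. Luminescence was recorded after 1 h with substrate at ambient temperature, relative to DMSO basal wells.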
Also: 0% is about no effect.

activation, inactive:
CCc1ccc(OCC(=O)Nc2cc(-c3ccc(C)cc3)no2)cc1 -3.33%, CCOC(=O)Cn1c(=O)cc(C(F)(F)C(F)(F)F)c2c(C)nn(CC)c21 -9.59%, COc1ccc(OCC(=O)Nc2ccc(Cl)c(-c3nc4ncccc4o3)c2)cc1 11.5%, O=C1CN(C(=O)COc2ccccc2)C(c2ccc(F)cc2)c2cc(Br)ccc2N1 (centres undefined) -23.8%, COc1ccc(-c2nn(-c3ccc(F)cc3)c3c2cnc2ccc(F)cc23)cc1OC -6.61%, Cc1ccc(NC(=O)CCCn2c(=O)c3cccn3c3ccccc32)cc1Cl -7.38%, CCCc1nn2c(=O)cc(COC(=O)C3CCCCC3)nc2s1 33%, COC(=O)c1ccccc1NC(=O)c1oc2ccc3c(c2c1C)C(=O)CC(C)(C)O3 -7.66%, O=C(NCc1nc2ccccc2n1Cc1ccccc1Cl)c1ccccc1 -24.6%, CCOc1ccc(CCNC(=O)Cn2ccc3cc(S(=O)(=O)N4CCCCC4)ccc32)cc1 16%, COCCn1c(SCC(=O)c2c(C)[nH]c3ccccc23)nc2cc(C(=O)NC(C)C)ccc2c1=O -7.22%, Cc1ccc(Cl)cc1NC(=O)Nc1cn(CC(C)C)c(=O)c2ccccc12 6.04%, Cc1ccccc1CN1C(=O)c2ccccc2Sc2ccc(C(=O)NCc3ccccc3)cc21 -14.5%, O=C(Nc1ccccc1F)c1nc(SCc2ccccc2F)ncc1Cl -4.73%, COc1cccc(CNC(=O)c2ccc3c(c2)N(Cc2ccc(F)cc2Cl)C(=O)c2ccccc2S3)c1 -19.3%, CCOC(=O)c1ccc(NC(=O)CSc2nnc(-c3ccncc3)n2-c2ccccc2)cc1 -1.84%, COc1ccc(-n2nc(C(=O)Nc3ccc(C)cn3)c3c4ccccc4n(C)c3c2=O)cc1Cl -9.47%, Cc1cccc(C)c1NC(=O)Cn1c(=O)n(Cc2ccccc2Cl)c(=O)c2cccnc21 -3.26%, NC1(c2ccc(-c3nc4ccn5c(=O)[nH]nc5c4cc3-c3ccccc3)cc2)CCC1 -6.63%, Cc1ccc(-c2nc(S(=O)(=O)c3ccc(C)cc3)c(SCC(=O)c3ccccc3)o2)cc1 -23.3%, CCN(C(=O)CSc1nc2ccccc2n1Cc1ccccc1C#N)c1ccccc1 1.14%, Cc1ccc(-n2c(=O)[nH]c3cc(C(=O)NCCc4ccccc4)ccc3c2=O)cc1 6.68%, Cc1ccc2c(C)c(C(=O)NCC(c3ccc(Cl)cc3)N3CCOCC3)oc2c1 (centres undefined) -22.3%, COc1cc(NC(=O)C2CCN(c3nnc(C)c4c(C)n(-c5ccccc5)nc34)CC2)cc(OC)c1 -20.1%, Cc1ccc(NC(=O)NC(C)c2c(-n3cccc3)sc(C)c2C)cc1F (centres undefined) 4.31%, Cc1ccc2c(c1)c(=O)c1ccccc1n2CCCC(=O)Nc1ccc(Cl)cc1C 13.7%, CCOC(=O)c1ccccc1NC(=O)c1cnn(-c2ccc(OC)cc2)c1C1CCN(C(=O)OC(C)(C)C)CC1 1.73%, CCOc1ccc(CNC(=O)c2cnc3c(C)cccn3c2=O)cc1 -12.2%, COc1ccc(NC(=O)C2CCN(C(=O)c3sc4nc[nH]c(=O)c4c3C)CC2)cc1Cl -15.2%, CN(CC(=O)Nc1ccc(Br)cc1)S(=O)(=O)c1cccc2nsnc12 4.02%, Cc1cc2oc(C(=O)N(Cc3ccc(N(C)C)cc3)CC3CCCO3)c(C)c2cc1Cl (centres undefined) -23.9%, CN1C(=O)Cc2cc(S(=O)(=O)CCC(=O)N3CCN(c4ccc(Cl)cc4)CC3)ccc21 41.2%, O=C(O)c1ccc(OCCN2CCCCC2)cc1 4.32%, COc1ccccc1NC(=O)CSc1nc2c(oc3ccccc32)c(=O)n1-c1ccccc1F 7.23%, CCOC(=O)C1CCN(c2nc3ccccc3nc2Cl)CC1 43.2%, COc1ccc(NC(=O)c2oc3ccccc3c2NC(=O)c2cc(C)cc(C)c2)c(OC)c1 -15.4%, CC(=O)Nc1cccc(NC(=O)CSc2nccn2C2CCCC2)c1 7.91%, O=C(CN1C(=O)c2cccc3cccc1c23)Nc1cccc(F)c1 12.4%, Cc1cc(C)c(NC(=O)C(=O)NCC(c2cccnc2)N2CCN(c3ccccc3F)CC2)c(C)c1 (centres undefined) -11.9%, CCc1cccc(NC(=O)c2cc3c(s2)-c2ccccc2OC3)c1 -5.34%, C=Cc1ccc(Cn2c(C)c(CNCc3ccc(SC)cc3)c(C(=O)O)c2C)cc1 -0.807%, CN(Cc1ccccc1)c1ccc(-c2nc(-c3ccccc3)no2)cc1[N+](=O)[O-] 0.001%, Cc1ccccc1NC(=O)CSC1=Nc2ccccc2C2=NC(Cc3ccccc3)C(=O)N12 (centres undefined) -7.07%, Cc1ccc(OCc2nc(C#N)c(NCCc3ccccc3)o2)cc1 -12.5%, COC(=O)c1ccc2c(=O)n3nc(Nc4cc(OC)ccc4OC)sc3nc2c1 -2.38%, Cc1ccccc1/C=C/C1=NCCN1 -3.56%, COc1ccc(Cl)cc1NC(=O)CSc1nnc2[nH]c(=O)cc(-c3ccccc3)n12 11.6%, Cc1ccc2[nH]c(=O)c3cc(C(=O)N(CCCOC(C)C)Cc4ccco4)sc3c2c1 -10.4%, CCC(Sc1ncc(S(=O)(=O)c2ccc(Cl)cc2)c(=O)[nH]1)C(=O)Nc1ccc(OC)cc1 (centres undefined) -3.28%, CCOC(=O)C1CCCN(S(=O)(=O)c2ccc3c(c2)N(C)C(=O)CC(=O)N3C)C1 (centres undefined) 7.2%, COc1cc(-c2nnc(SCC(=O)Nc3cccc(C#N)c3)o2)cc(OC)c1OC -9.63%, COc1ccc(CCNC(=O)CN2C(=O)COc3ccc(S(=O)(=O)N4CCCCCC4)cc32)cc1OC -0.34%, CCc1ccc(CNC(=O)c2cnc3sc(N(CC)CC)nn3c2=O)cc1 0.0345%, O=C(Cn1ncc2c3ccccc3n(Cc3ccc(Cl)cc3)c2c1=O)NC1CCCCCC1 4.18%, CCc1ccccc1NC(=O)C(=O)NCCc1sc(-c2cccc(C)c2)nc1C 24.6%, CCOc1ccc(-n2c(=O)c3sc4ccccc4c3n(Cc3ccc(F)cc3)c2=O)cc1 1.98%, Cc1ccc(NC(=O)c2ccc(CN3CC(=O)N4CCCCC4C3=O)cc2)cc1C (centres undefined) -14.6%, Cc1ccc(Cl)cc1N1CCN(S(=O)(=O)c2ccc3c(c2)CC(=O)N3C)CC1 -0.995%, CCCCC(CC)Cn1c(Oc2ccccc2)nc2c1c(=O)n(C)c(=O)n2C (centres undefined) 14.1%, CC(C)c1cnc2c(c1SCC(=O)Nc1cccc([N+](=O)[O-])c1)c(=O)n(C)c(=O)n2C -23%, CCn1c(SCC(=O)Nc2ccc(C)c(C)c2)nnc1-c1nonc1NC(C)=O -31.5%, COCCCNc1ncnc2c1nnn2C -19.4%, Cc1ccc(N(CC(=O)Nc2ccc(OC(F)(F)F)cc2)S(=O)(=O)c2c(C)noc2C)cc1 40.4%, Cc1[nH]c2c(C)cccc2c1CCNC(=O)c1cc2ccccc2oc1=O -13.2%, Cc1cccc(-c2[nH]c(C(C)(C)C)nc2-c2ccc3nccnc3c2)n1 -8.51%, O=c1oc2ccc3ccccc3c2cc1-c1nnc(Nc2cc(C(F)(F)F)ccc2Cl)s1 4.53%, Cc1ccc(O)c(NC(=O)c2nc3nc(C)cc(C(F)F)n3n2)c1 2.44%, COCCn1c(SCC(=O)c2c[nH]c3ccccc23)nc2cc(C(=O)NCC(C)C)ccc2c1=O 4.99%, COc1cccc(N2CCN(C(=O)c3nc(-c4ccc(Cl)cc4)n4c3CCCCC4)CC2)c1 -15%, CCc1ccc(CNC(=O)c2cc3c(s2)-c2ccccc2OC3)cc1 -1.44%, Cc1nc(N2CCCC2)ncc1C(=O)NCc1ccccc1Cl 1.03%, CCc1nnc2n1N(C(C)=O)C(c1ccc(C(C)(C)C)cc1)=C(C(C)=O)S2 -43.9%, COc1cc(NC(=O)CSc2nc3nc(C)c(Cc4ccccc4)c(C)n3n2)cc(OC)c1OC -3.26%, COC(=O)c1ccc(NC(=O)C2CCN(S(=O)(=O)c3ccc4c(c3)CCCN4C(C)=O)CC2)cc1 19.8%, O=S(=O)(c1cccc(Cl)c1)c1nnn2c1nc(NC1CCCC1)c1sccc12 -21.3%, COc1ccc(CC(=O)Nc2sc3c(c2C(=O)Nc2ccc(C)cc2)CCCCC3)cc1 -21.5%, CCc1cccc(C)c1Nc1c(-c2cccc(O)c2)nc2sccn12 -22%, Cc1[nH]c2ccccc2c1C1(O)C(=O)N(Cc2ccc(Cl)cc2)c2ccccc21 (centres undefined) -28.1%, CCOC(=O)c1cc2c(=O)n3ccccc3nc2n(CC2CCCO2)c1=NC(=O)c1cc(C)cc(C)c1 (centres undefined) 10.7%, N#C/C(=C\c1ccccc1F)c1nc2ccccc2c(=O)[nH]1 24.3%, CC(=O)c1ccc(NC(=O)CN2C(=O)CCc3cc(S(=O)(=O)N4CCC(C)CC4)ccc32)cc1 -6.47%, COc1cccc(NC(=O)CCc2nnc3n(CC(C)C)c(=O)c4ccccc4n23)c1 -2.05%

activation, active:
COC(=O)c1cc2sc(Cl)cc2n1CC(=O)Nc1cc(OC)cc(OC)c1 88.5%, COCCCNC(=O)Cn1c(=O)n(-c2ccc(Cl)cc2)c(=O)c2c3c(sc21)CCCCC3 60.1%
